Measured values reported in the BET-seq Pho4 binding data (Le et al. 2018).
The other results are listed elsewhere or left out. These are noisy estimates, calculated here from bound and input reads.

These sequences were tested against T1, Pho4 (S. cerevisiae) (UniProt P07270) (assay: relative binding free energy (BET-seq); higher = weaker binding). Conditions: reference: library average.
T1 sequence: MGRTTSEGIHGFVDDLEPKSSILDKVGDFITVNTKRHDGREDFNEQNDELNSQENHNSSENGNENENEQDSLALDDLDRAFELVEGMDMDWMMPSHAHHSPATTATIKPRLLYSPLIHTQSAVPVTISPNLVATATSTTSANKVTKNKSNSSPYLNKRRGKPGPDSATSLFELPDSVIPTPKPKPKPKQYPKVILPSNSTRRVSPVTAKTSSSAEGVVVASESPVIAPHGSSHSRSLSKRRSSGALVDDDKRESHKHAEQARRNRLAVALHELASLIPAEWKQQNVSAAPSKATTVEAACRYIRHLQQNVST

Sequence | relative binding free energy
CTGTGCACGTGTGGGT | 0 kcal/mol
ATGAGCACGTGGGATA | -0.12 kcal/mol
TTTATCACGTGGGGCT | 0.09 kcal/mol
TTGTTCACGTGCGCTG | 0.29 kcal/mol
CCTGTCACGTGGTTAT | 0.05 kcal/mol
CGTGACACGTGGGGGT | -0.07 kcal/mol
TGAGTCACGTGATATT | 0.24 kcal/mol
TTGGACACGTGATGGC | 0.17 kcal/mol
CTATGCACGTGTGTGG | -0.08 kcal/mol
ATTTACACGTGGGGGG | -0.02 kcal/mol
ATTATCACGTGGGTTG | -0.06 kcal/mol
CTTTGCACGTGGAAGG | -0.02 kcal/mol
TTTTGCACGTGTACTC | 0.24 kcal/mol
CGTGTCACGTGGTGAA | 0.02 kcal/mol
GGGGCCACGTGAGGTG | 0.22 kcal/mol
AGTAGCACGTGTGTTC | -0.15 kcal/mol
GATAGCACGTGTGGTT | 0.15 kcal/mol
CAGTGCACGTGTAGAT | 0.23 kcal/mol
TTGAGCACGTGGTTAT | -0.17 kcal/mol
TAAAGCACGTGAATGT | 0.05 kcal/mol
GTATGCACGTGATTTT | 0.18 kcal/mol
TGGACCACGTGTTTTG | -0.11 kcal/mol
CGATACACGTGTTGGT | 0 kcal/mol
GGTTACACGTGGTTGA | 0.13 kcal/mol
GCATTCACGTGTGTGA | 0.35 kcal/mol

Sequence | relative binding free energy
TGGAGCACGTGGCTTG | -0.11 kcal/mol
AAAATCACGTGTTAGT | -0.02 kcal/mol
ATCGTCACGTGAATAT | 0.29 kcal/mol
TGGTTCACGTGGGGCG | 0.17 kcal/mol
TAGGGCACGTGATAGG | 0.01 kcal/mol
TCGAGCACGTGTTGTT | -0.04 kcal/mol
AAGCTCACGTGGTTAT | 0.25 kcal/mol
GAGGGCACGTGTAAGA | 0.14 kcal/mol
GCGTTCACGTGTGTGA | 0.4 kcal/mol
GGTAGCACGTGCGCTG | -0.07 kcal/mol
AGTTACACGTGTGCTG | -0.01 kcal/mol
GGTATCACGTGGGGCG | -0.02 kcal/mol
TCATTCACGTGGTGGC | 0.25 kcal/mol
AAATTCACGTGGTTGC | 0.24 kcal/mol
GTCTTCACGTGATGTG | 0.41 kcal/mol
TGCTTCACGTGCTAGG | 0.21 kcal/mol
TATATCACGTGCATGG | 0.07 kcal/mol
AGTGGCACGTGTCATG | -0.01 kcal/mol
ATCTTCACGTGGGATA | 0.17 kcal/mol
TTCGTCACGTGGTGCA | 0.03 kcal/mol
ATTAACACGTGGTTTG | -0.06 kcal/mol
ATTCTCACGTGTTATT | 0.18 kcal/mol
AATGGCACGTGCTTTT | -0.18 kcal/mol
TGGGGCACGTGAGAAG | -0.06 kcal/mol
ATGGGCACGTGTAATG | -0.04 kcal/mol

Sequence | relative binding free energy
AAAGGCACGTGATGCT | 0.01 kcal/mol
TGGAGCACGTGCTGTG | -0.15 kcal/mol
ACTAGCACGTGTGGAA | 0.27 kcal/mol
TTGGCCACGTGAGTGC | 0.1 kcal/mol
GGGGTCACGTGCATTG | 0.12 kcal/mol
TCGGGCACGTGGGGTA | -0.21 kcal/mol
AAATACACGTGAGGTG | 0.26 kcal/mol
CTAAGCACGTGTTTGT | -0.14 kcal/mol
ATTTGCACGTGTTCTG | 0.02 kcal/mol
TTGGACACGTGATGGG | 0.1 kcal/mol
TATGGCACGTGAGCTA | 0.06 kcal/mol
GGCGGCACGTGATGTA | 0.16 kcal/mol
GTTACCACGTGTGTAG | 0.1 kcal/mol
TGATGCACGTGGGCGA | -0.01 kcal/mol
AGTTGCACGTGTGTCA | -0.2 kcal/mol
GGTAGCACGTGGTAAA | 0.09 kcal/mol
TGGCACACGTGGAGGA | 0 kcal/mol
AAATGCACGTGAGTTG | 0.24 kcal/mol
GCAGTCACGTGTGGCG | 0.12 kcal/mol
GGGAACACGTGGCGGG | 0.14 kcal/mol
ATACGCACGTGAGGGG | -0.05 kcal/mol
CTGGCCACGTGAGTGT | 0.16 kcal/mol
ATTGTCACGTGCTATT | 0.04 kcal/mol
ATTCACACGTGCGGTG | 0.05 kcal/mol
ATATTCACGTGCTAGG | 0.1 kcal/mol

Sequence | relative binding free energy
CTTTGCACGTGATTTT | -0.01 kcal/mol
TGGGTCACGTGATTCA | 0.44 kcal/mol
TCATTCACGTGAGGGG | 0.41 kcal/mol
AATGGCACGTGGAGGA | -0.07 kcal/mol
TGCTTCACGTGCTTGA | 0.33 kcal/mol
ATGTTCACGTGCACGG | 0.1 kcal/mol
AAATACACGTGTGGAT | 0.29 kcal/mol
GTATACACGTGATGTT | 0.16 kcal/mol
GAGAGCACGTGGGTTA | -0.16 kcal/mol
ATTGGCACGTGGTTAA | -0.17 kcal/mol
TAGATCACGTGTAATT | 0.08 kcal/mol
GGTTGCACGTGTTATT | 0.2 kcal/mol
GTGAGCACGTGATGGC | 0.24 kcal/mol
TCAGTCACGTGAGTTG | 0.36 kcal/mol
TAGGGCACGTGTGTCT | -0.15 kcal/mol
GTCATCACGTGGTAGG | 0.18 kcal/mol
TGGAGCACGTGATTCG | -0.01 kcal/mol
GTACGCACGTGAGTTG | 0.08 kcal/mol
AAGGGCACGTGATTTT | 0.06 kcal/mol
TTCTGCACGTGTGGTA | 0.07 kcal/mol
GTTATCACGTGCTTAT | 0.13 kcal/mol
CCGGTCACGTGGCGGT | 0.04 kcal/mol
TATAGCACGTGACTTG | 0.2 kcal/mol
CCTGTCACGTGGGGAT | -0.04 kcal/mol
TCAGGCACGTGAATGT | 0.22 kcal/mol

Sequence | relative binding free energy
TTGGTCACGTGGAAAT | 0.28 kcal/mol
ACTTGCACGTGGGGTC | -0.13 kcal/mol
AGTAACACGTGTGAAT | 0.16 kcal/mol
AGTTTCACGTGAGTAG | 0.41 kcal/mol
GCGCGCACGTGAGGTT | 0.15 kcal/mol
TATCGCACGTGGTTGG | -0.04 kcal/mol
TTTTTCACGTGGTGTC | 0.31 kcal/mol
GTGGTCACGTGGAGAT | 0.22 kcal/mol
CTTATCACGTGGATGA | 0.24 kcal/mol
AAGGACACGTGTATTG | 0.06 kcal/mol
AATAGCACGTGTGTAG | -0.03 kcal/mol
TCGGTCACGTGAACGT | 0.33 kcal/mol
TGTCACACGTGGGCTG | -0.02 kcal/mol
AGGAACACGTGGTTGC | 0 kcal/mol
GGTCGCACGTGATTAA | 0.32 kcal/mol
TATGGCACGTGGTCGG | -0.23 kcal/mol
ATTGGCACGTGCTAGG | -0.31 kcal/mol
TGTTTCACGTGTGGAG | 0.33 kcal/mol
GGAAGCACGTGTTGGG | -0.05 kcal/mol
TGAATCACGTGGGAGC | 0.12 kcal/mol
AGTAACACGTGTGTTT | 0 kcal/mol
GTCTGCACGTGCGTGG | 0.01 kcal/mol
TGTGACACGTGTGCAT | -0.04 kcal/mol
ATTTTCACGTGGGGAG | 0.28 kcal/mol
TTGATCACGTGAGTGT | 0.17 kcal/mol

Sequence | relative binding free energy
AGGATCACGTGTTGCA | 0.11 kcal/mol
GGGGGCACGTGTGTAA | -0.05 kcal/mol
TATGGCACGTGGGATC | -0.25 kcal/mol
AGTTCCACGTGGTGTT | 0.04 kcal/mol
TAGAGCACGTGGGAAG | -0.09 kcal/mol
TTGTGCACGTGTATTG | -0.05 kcal/mol
TTTCACACGTGCGGGG | -0.05 kcal/mol
GGAGACACGTGGGAGC | -0.07 kcal/mol
ATGGGCACGTGGGGGG | -0.15 kcal/mol
TGGGGCACGTGTTTAG | -0.06 kcal/mol
GACGTCACGTGTTGGG | 0.16 kcal/mol
CTTTACACGTGGGAGA | 0.11 kcal/mol
TAAGGCACGTGGTTGA | -0.21 kcal/mol
AGGTGCACGTGAGCTA | 0.11 kcal/mol
TTAAGCACGTGTTTTA | -0.07 kcal/mol
GGGGGCACGTGCTGGT | -0.13 kcal/mol
TTATACACGTGGTGGC | -0.14 kcal/mol
GATGGCACGTGGGTAA | -0.12 kcal/mol
TAGGTCACGTGTTTAT | 0.09 kcal/mol
GCAGCCACGTGGGAGG | -0.01 kcal/mol
TGTTGCACGTGCTTTT | -0.05 kcal/mol
